# Experimental data published in ChEMBL document CHEMBL4888484, “Replenishing the malaria drug discovery pipeline: Screening and hit evaluation of the MMV Hit Generation Library 1 (HGL1) against asexual blood stage Plasmodium falciparum ,using a nano luciferase reporter read-out” (2022).
# About 540 (0.36%) of roughly 150,000 compounds showed an effect of 50% or more. Some of the results follow.
# Test system: Plasmodium falciparum
# Test: Primary screen in NF54 nanoGlo assay, in single point, at 2uM, 72h; a lower Z score goes with more inhibition
# Type: functional, Erythrocyte
# Conditions: timepoint 72 hour
SMILES,% Inhibition,Z score
CCc1nc(Cn2ccnc2[C@@H](C)CC)no1,-15%,3.04
CCc1ccc(-c2[nH]nc3nc(-c4ccc(OC)cc4)cc(C(=O)NCCc4ccc(OC)c(OC)c4)c23)cc1,-9%,0.79
Cc1ccc(C)c(CC(=O)N2C[C@H]3CC[C@@H](C2)[C@@H]3N)c1,-3%,0.47
O=C(NCc1ccc(F)cc1F)[C@H]1CCCN(c2cn[nH]c(=O)c2)C1,36%,-4.08
Cc1nnc(CCOC(=O)[C@H]2CCCN2C(=O)OC(C)(C)C)o1,0%,-0.02
O=C(c1cncc(-c2cccc3ccnn23)n1)N1CCOCC1,-11%,1.55
C[C@]1(C#N)CCCN(C(=O)c2n[nH]c(N)c2Cl)C1,1%,-0.14
CC(NC(=O)C1CC1c1ccccc1Br)c1cccnc1 (stereo not given),-5%,0.61
Cc1cc(Br)ccc1CN1CCC[C@H](c2nncn2C)C1,-2%,0.3
Cn1cc(C(=O)N(Cc2ccco2)C2CCOCC2)nn1,-8%,1.27
C[C@@H](COCC(F)(F)F)Nc1ncnc(N)c1Cl,-5%,1.03
c1ccc(-n2nnnc2N2CC[C@]3(CCOC3)C2)cc1,1%,-0.08
Cc1csc([C@@H]2CN(c3ncnc(N)c3Cl)CCO2)n1,-6%,1.16
CC(C)C[C@H](C)NC(=O)c1nn(-c2ccccn2)c2nccc(-c3cccs3)c12,-1%,0.13
Cc1cc(CNC(=O)c2[nH]ccc2C2CC2)n(C)n1,-5%,0.62
CC(C)(C)C(=O)NCC[C@H](O)c1ccccc1,-5%,0.92
CCc1[nH]c2c(CNC(=O)c3c(C)cc(C)n(C)c3=O)cc(F)cc2c1C,-10%,2.06
O=C(Cn1cc(S(=O)(=O)N2CCOCC2)ccc1=O)Nc1ccccc1Cl,3%,-0.59
O=c1[nH]c2cc(Br)c(S(=O)(=O)Nc3cccnc3)cc2[nH]1,3%,-0.54
O=C1OCCN1CCn1ccnc1C1CC1,-8%,1.33
C/N=C(\Nc1cccc(S(=O)(=O)N2CCOCC2)c1)c1ccccc1,1%,-0.14
N#Cc1cccc(NC(=O)CN2C(=O)CN(C3CCCC3)C2=O)c1,-9%,0.85

SMILES,% Inhibition,Z score
CC1CCCC(OCc2cccc(NC(=O)CN3CCCNC3=O)c2)C1 (stereo not given),-2%,0.26
O=C(NCCc1ccncc1)c1cccc(-c2cnn(CC3CC3)c2)c1,-8%,1.45
CN1C(=O)c2cc(C(=O)NCCN3CCCC3)nn2C[C@@]1(C)C(=O)NC1CCCCCC1,10%,-1.13
Cc1ccc(NC2(C(=O)N3C[C@H](O)[C@@H](F)C3)CCCCC2)cc1C,-9%,1.27
COCCC[C@H]1CCCCN1S(=O)(=O)N(C)C,-12%,2.23
C[C@H](NC(=O)CC1(N2Cc3ccccc3C2=O)CCOCC1)c1nc2ccccc2n1C,-14%,1.78
O=C(CC1CCCC1)NC1CC(O)C(CO)C1 (stereo not given),-13%,2.05
COc1ccc(CNC2CC3CCC2C3)cc1NC(C)=O (stereo not given),4%,-0.44
N[C@H]1CC[C@@H](C(=O)Nc2cccc3c(-c4ccccc4)ccnc23)C1,-3%,0.32
O=C(Cc1ccccc1)Nc1ccc(N2CCN(C(=O)c3cccs3)CC2)nc1,-19%,1.9
CN(C)c1nc(N2CCC[C@H](O)CC2)ncc1F,-10%,2
CNS(=O)(=O)[C@H]1CCN(C(=O)CCCc2cc(F)ccc2F)C1,2%,-0.33
COc1cc(-c2ccccc2)ccc1CN1CCC(n2cncn2)CC1,16%,-1.79
COCc1nocc1C(=O)NC[C@H]1CCc2nccn2C1,-4%,0.8
Cc1cc(C(=O)NC[C@H](Cc2ccccc2)C(=O)O)sc1C,-11%,2.17
O=C(NCc1ccccc1Cl)[C@@H]1Oc2ccccc2NC1=O,0%,-0.02
O=C(Nc1cccc(Cl)c1)C1[C@H]2C=C[C@@]3(O2)C(C(=O)NC2CCCCC2)N(CC2COc4ccccc4O2)C(=O)[C@@H]13 (stereo not given in full),2%,-0.32
Cc1ccccc1OC/C=C/CN1CCOCC1,-7%,0.75
O=C(NCc1nnc[nH]1)c1cccn1C1CCCC1,-8%,1.48
CN1CCN(C[C@@H]2OC[C@H](NC(=O)c3ccccc3)[C@H]2O)CC1,-5%,0.67
O=C(CCCc1nccs1)NCC1CCCCC1O (stereo not given),-9%,1.03
CC1(C)OCC[C@@H]1NCc1noc2c1COCC2,-14%,1.5

SMILES,% Inhibition,Z score
O=C(NC(Cc1ccccc1)c1ncco1)N[C@H]1CCC[C@@H](C2CC2)C1 (stereo not given in full),-1%,0.22
Cc1c(Cl)cccc1Nc1cc(C(C)C)nc2nc(-c3cccnc3)nn12,5%,-0.74
N#Cc1nc(C2CC2)oc1N1CCN(C(=O)c2cc(F)cc(F)c2)CC1,-10%,0.94
CC(C)N1CCCN(C2CCN(c3cccc(N4CCCC4=O)c3)CC2)CC1,-6%,0.87
CCc1ccccc1NC(=O)CN(C)[C@@H](C)C(=O)Nc1ccc(Cl)cn1,-12%,2.19
COc1ccc(NC(=O)Nc2ccc(N3CCCN(Cc4ccc(F)cc4F)CC3)nc2)cc1,-11%,2.02
CC1C(c2ccccc2)N(C)CCC1(O)c1ccccc1 (stereo not given),-5%,0.9
CNC(=O)C[C@H]1C(=O)NCCN1Cc1cc(O)c2cc(F)ccc2n1,-12%,2.13
CC1=CCCN(C(=O)[C@H]2CCCN(C(=O)c3ccc(F)cc3)C2)C1,2%,-0.19
CCC[C@H](C)C(=O)Nc1ccc(S(N)(=O)=O)cc1,-14%,2.7
COc1ccc(C(=O)N/C(=C\c2cn(S(=O)(=O)N(C)C)c3ccccc23)C(=O)N2CCCCC2)cc1OC,-8%,1.38
CCc1nc(C)c([C@H](C)N(C)Cc2coc(-c3ccc(C(=O)OC)cc3)n2)s1,-6%,1.06
CS(=O)(=O)c1ccc(Cl)c(S(=O)(=O)N2CCC(n3ccnc3)CC2)c1,1%,-0.11
CCC1CN(C(=O)c2csc(COC)n2)CC1N1CCOCC1 (stereo not given),-3%,0.47
CCc1noc(CNCCn2cccn2)n1,-6%,0.79
CC(C)S(=O)(=O)CCCn1cc(C#N)cn1,-1%,0.16
Cc1ncncc1C(=O)N1CCC[C@H](c2noc(C(C)C)n2)C1,1%,-0.06
OCCN(CCO)C[C@H]1Cc2ccccc2O[C@@H]1C(F)(F)F,-11%,1.39
Cc1cccc(S(=O)(=O)NCc2cccc3c2OCO3)c1F,-9%,1.23
CCS(=O)(=O)CCNc1nc(C)nc2c1Cc1ccccc1OC2,-8%,1.04
CCc1noc(C)c1C(=O)Nc1sc2c(c1C(N)=O)CCCCC2,-23%,2.07
CC(C)(C)OC(=O)N1CCC(C)(C)C1C(=O)NCC1CCCOC1 (stereo not given),12%,-1.33

SMILES,% Inhibition,Z score
C[C@@H](CNC(=O)C1CCCCC1)NC(=O)C1CCCCC1,-6%,1.09
Cc1cc(C(=O)N(C)[C@@H](C)C(C)(C)C)no1,0%,-0.05
CC(C)n1ccc(CN2C(=O)C[C@H](C)C2=O)n1,-6%,0.51
CCc1c(C(C)(C)C)noc1NC(=O)[C@H]1CCCO1,-15%,2.48
O=C(c1ccc(N2C(=O)C3C4CCC(C4)C3C2=O)cc1)N1CCCCC1 (stereo not given),-11%,1.48
COc1ccc(Nc2nc(-c3cc(C(N)=O)oc3C)cs2)cn1,-8%,0.9
CC(=O)NCCNC(=O)c1cc(NCc2ccc3c(c2)OCO3)cc(S(=O)(=O)N(C)C)c1,-2%,0.24
COCCNC(=O)CCNc1ccc(Br)cn1,-6%,0.95
CCN(Cc1cn(C)nn1)Cc1cccc(OC)c1Cl,23%,-2.92
O=C(CCc1nnc[nH]1)NC1(c2ccc(F)cc2F)CCCCC1,-9%,1.15
Cc1ccc(-n2nc(C)c(CC(=O)N3CCCC(C(C)N)C3)c2C)cc1Cl (stereo not given),-11%,1.08
N#CCCN1CCN(C(=O)c2cn3ccnc(-c4ccccc4)c3n2)CC1,34%,-3.87
O=C(NCCc1c[nH]c2ccc(Br)cc12)c1cc[nH]n1,-16%,2.61
CCc1nccn1C[C@H](C)NCc1ccc(N2CCCC2=O)cc1,-7%,0.62
O=C(CN1C(=O)COc2ccc(F)cc21)NCc1ccc2c(c1)OCO2,9%,-1.08
O=C([C@@H]1CCCO1)N1CCN(C(c2ccccc2)c2ccccc2)CC1,4%,-0.55
C[C@H](NC(=O)COc1ccc(-c2ccccc2)cc1CN(C)C)c1ccco1,-4%,0.64
COc1ccc(CCC(=O)N(CCS(=O)(=O)N2CCNCC2)C(C)C)cc1,0%,-0.05
CN(Cc1nnc[nH]1)C(=O)C1CCC(NC(=O)CC2CCCCC2)CC1 (stereo not given),1%,-0.1
